# Test results: the supplement of paper PMC12632987
# Over roughly 2,300 sequences, “median log2 fold change of GCK-ALFA target abundance (FLAG IP / Myc IP barcode read proportion)” has its median near 0.095; the lowest 2% begin near -0.47. Some of the results follow.
# B1: LC3A_28_1207 (protein)
# chain: SKSLKNAEEALKKAKEAAEKGEEEVIVIKVEGGITQEEVEKVIKYLEEIAKIAAKNPKISIVIDISGGVKQEHQDKIIKKAEELEKKYPNVNIIIALEEE
# B2: LC3A_free_2_2171 (protein)
# chain: TMYRFEVDTLGTAEEIYDLVLRLLELGARVTVTDANGNTVDLTGKSEEEIKKIAEEFAKTGYVRIVVEVPEEKKEEVEEAIDEAAERIGSAVITLPEAIP
# B3: LC3A_147_507 (protein)
# chain: YKLTVEIDLIVKNAEEEVKKMIKEIEEELKKKGFEVEVKIETEKLDEDTTYIHITITVKAKTKEEAEEARDLILDRLDEFLEKNKDKILGSLISYEIEEE
# B4: LC3A_28_1240 (protein)
# chain: SHVEEQIKEAKKEVEKAVKEGKEALVTLTVTGSDTEEDIEKIIEAMEEIAELAKDLPRLSIIIDVDASVPEEHINKLADAAEEIEEKYPNVTVILALEER
# B5: LC3A_23_619 (protein)
# chain: MYRITIDVDVLVPREEAEAVRARLRATLQAIVDKYADKALASELEFEEEELEDGTVYLRGRLTLVTDLDEAEAQAIADDAVTEISAALPDAVISYSVEKL
# B6: LC3A_28_1071 (protein)
# chain: MKVEEEIEKAKKEAKEAKKEGKDVVIVVKLEESDTDEEVEKKIEAIKEIGEILKDVKDATIVVEVEGEVAKKYLDKIAEVGEEIEKKYPNVTVIIALDEE
# B7: LC3A_28_1059 (protein)
# chain: MSIEEELEEALEEAREAVERGEEALIELTIDEDATEEDVELVLETMEEIAELTKDLPRTTIVVDVDHKNKEEVTKLVSEKGDRLEKRYPNVTVIIALSEE
# B8: LC3A_132_309 (protein)
# chain: GEELAKKLIELAKEALKLVKEDDSKEEEVLKLLKEIRELMKKLAKEASPELAAKTFEEVTDLMIEISRLASKKGWEEVSLEAFALAAEAAQLASDARKKL
# B9: LC3A_28_886 (protein)
# chain: GEAIESAKKALEEVKKAMAAGNKEPLVLEVKAPSKEEDVEKLIEILEEIAKEASKGIKVHIIIDIDESVSQENKDKIIDHGEEIEKKYPNVTVIFALPES
# B10: LC3A_free_46_2426 (protein)
# chain: VDIDVDLLLEGDDEEKLKAAVEEIKEAFKKIAEEYNAELEIEVEFSTDPDGNHFAHINIKITSDDLETQQKIANESIDSIDKIAEKYGVSYIISVDIEKK
# B11: LC3A_free_46_2314 (protein)
# chain: YIGEIILDIFGVDEETAEALVKELEKKFKEIAKKYGLEIEIKVEKYLNEDGTTYVEIDITLKGEDKEKLKEAVNEIISEADKIAEKYGATLVVSYEIEEE
# B12: LC3A_free_46_2394 (protein)
# chain: IRGEIDILLKGATMEQAREIAEAAVEKIKEEAAKLGIKVEIEVTIERDEDGDVFIRIEVKMDTKDKQQALDILDATMDEALALAKELGIEASAIISVEEE
# B13: LC3A_28_1255 (protein)
# chain: SEVEESIEKALAEAKAAVEKGEEAVVTIKVPAGVTEEETEKIIEAMDEIAELTASLPSTTIIVDVEAGVAQEHIDKLADKGEELEKKYPHLTVIIALEEE
# B14: LC3A_28_1155 (protein)
# chain: SAEVEEAKKLIDEDAERDKDEEEVYLEVKITSSVTVEEAREIMDHVEEVVEKLKDKKKIYVVVTFEEPVSQEVLDEVLRRAEEIEEKFPNVDVIIALPED
# B15: LC3A_59_2024 (protein)
# chain: SEELKELVEKIIENKDNIDKMAETILEGFELVKDDPEALKELEELLVKGLVEAGLLSKELAEEMVNEIKKAYETLKDREEQLKAIKEIITIYLNEEEIEE
# B16: LC3A_17_577 (protein)
# chain: SEETKKLLEEAVKQLEKAAKLAEKLDPEAAKKVKELLEKVKEAAETKSDLEIAETIAEQMDKVADILDSLEDKDPDATGHASMEADGVSIEAESLALKLE
# B17: LC3A_3_1901 (protein)
# chain: MEELLARARAVLEARGYSPEAIAAILAELRRLLELGYERVVEEIIRLLEENPTISGEAAVRIARDVLEAAEKEKLSEEELIEFAREEARLAVNENEIEEL
# B18: LC3A_free_46_2326 (protein)
# chain: YKVEIEIDALHDDKEKMEKFVEELKKKLKEIAEKYNAKIEIEVEISKDEDGSYFARIKIKVYAETLETAEKIKNEIIDSIEEIAEKYNASVLISYEIIKE
# B19: LC3A_141_371 (protein)
# chain: KTITKTYTYGYMDADQARAKIDAIMADVKKLIEETGGATVTVTTTITTYNEATGETTTETVTETITPENIDLVSEGLLIEVESAALKGKVAITTTITTTE
# B20: LC3A_3_1526 (protein)
# chain: MEEIRARILALLREAGADEETLATAEEALDLLEARGYLKAQEVLLEEVERLRDASPEVLAWFVEEVLELVRTEDLDEEELSAEIRKIAATALADHEIEEL
# B21: LC3A_17_572 (protein)
# chain: DEATRALVERTLAVLEEAQAFAATVDAAKAAQVAALIAQLREAAATLSPLEVAETAAELMDQTAEILDSLKAADPDKREHLSMEAEGVAIEAESLALRLE
# B22: LC3A_127_188 (protein)
# chain: EIEKLIKELLKELEKLSELLSSPDFDLEEAEKLAKKILKLAKELEKLDPRFKPLVEDAKELLKIIEEMKNASPAEQEELKEHALMLVEGMEIEALSLELK
# B23: LC3A_28_1009 (protein)
# chain: MSVVEKTKKEAEKAIAEAKKGKDAYLEIDITKDTTLEEVKEINEIIEKTAKEISKIKNVKLYVVVNDDSNQENHDIILDSMDKVEKEYPNVSSIIAYTDE
# B24: LC3A_28_769 (protein)
# chain: MDIEEEVARAKERAKAAVAAGEEDVIVLTVPKGATQEDIDKAIEGLYEIAEIVKDMKRQTIVIDVESGVKQEHIDKLADAAEEIEKKYPNVTVILALDED
# B25: LC3A_3_1388 (protein)
# chain: FEEIKKETLEELKKFGKSEEVIEKAKEVLDALEEKGYLNAMKTLLEELKELKDASDELLLSFLEDVLEVVTTKDLSEEELVKKIKEEATVTKNESEIEEL
# B26: LC3A_13_344 (protein)
# chain: SITITADTADELLTKSKAALDANPGSTLNITVTVKNEAEADAVAAALKEIIDHAISKGSTLNITLKGKKDLVNYTALEVGSHIFEKTGKANVTVTTEVVE
# B27: LC3A_102_129 (protein)
# chain: DPEELKREKLRRVREEVERLLEKDKSLSEEEKERALRLAEELARAALDNALTEIQHGFEDIVAIDRALEALEELEKIDPELAEEIRRIVERAVREFREEL
# B28: LC3A_28_776 (protein)
# chain: MDIEEEIKKAIEEAKAAKAAGEEAVIEIKVPNGATEEDIEKVIEGMKEIAEITKDMKSTAIVVDVDSGVKQEHLDKLIDAGEEIEKKYPNVNVIFALDED
# B29: LC3A_17_542 (protein)
# chain: MEEIKKELEELLKKLEKLVEKLAEYDPEKAKKLKKKLEEAKKLIKAGKLKEAAELLAEAAREAAEAWEELEPEYGTEASVYAMEASGLELEAIGILLKLD
# Molecular target: MAP1LC3A, Q9H492
# Assay: median log2 fold change of GCK-ALFA target abundance (FLAG IP / Myc IP barcode read proportion) (log2 ratio); each designed protein is fused to an ALFA-tag nanobody in HEK293 cells to bring the named protein to FLAG-tagged glucokinase (GCK); Myc marks an untargeted standard; higher = target protein stabilised (more abundant)
# Conditions: target protein: 3xFLAG-MCP-GCK-ALFA reporter; HEK293 landing pad (RPLP)
# Method in brief: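 Binders fused to an ALFA nanobody were recombined as a library into HEK293 landing-pad cells, which were induced with 2 μg mL^−1 doxycycline and then transfected to express a FLAG-tagged target and a Myc-tagged standard. After 48 h, circular RNA barcodes recovered by anti-FLAG and anti-Myc immunoprecipitation of lysates were reverse transcribed, amplified and sequenced. Each binder's target abundance is the median log2 ratio of FLAG to Myc barcode read proportions, from barcodes present at ≥10^−7 in both replicates, binders carrying ≥3 barcodes per replicate, a 10^−6 pseudocount and pooled replicates.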
row,Binder,median log2 fold change
1,B1,0.141
2,B2,0.0987
3,B3,-0.129
4,B4,-0.246
5,B5,0.151
6,B6,-0.029
7,B7,-0.148
8,B8,0.306
9,B9,-0.158
10,B10,0.0526
11,B11,-0.102
12,B12,0.0175
13,B13,0.3
14,B14,-0.446
15,B15,0.373
16,B16,0.231
17,B17,0.351
18,B18,0.106
19,B19,0.165
20,B20,0.159
21,B21,0.105
22,B22,0.156
23,B23,-0.428
24,B24,0.0462
25,B25,0.302
26,B26,0.222
27,B27,-0.44
28,B28,-0.0907
29,B29,-0.71
